The campaign covered roughly 52,000 compounds. About 1,700 (3.3%) were called active. Rule as the data show it: active = survival mostly below about 52% (no sharp cut-off); inactive = mostly above about 56%. This is one part of the list.
These compounds were tested on Wild type (assay: S. aureus survival, RN4220 and DeltatarO strains – OD600, teichoic acid synthesis inhibitors, primary screen (AID 463173)). Settings: S. aureus RN4220 wild type/DeltatarO growth, OD600, 18 h, hits give low values, screened at 18.75 µg/mL (by protocol).

SMILES	survival
CCc1ccc(C2c3c(-c4cc(C)ccc4O)n[nH]c3C(=O)N2CCO)cc1 (stereo unspecified)	inactive: 78%
Cn1c(SCC(=O)N2CCOCC2)ncc(C(=O)Nc2ccc(F)cc2)c1=O	inactive: 72%
CCOC(=O)c1c(S(=O)(=O)NCC(=O)Nc2cccc(SC)c2)c(C)n(C)c1C	inactive: 70%
CNc1nc(SC)nc(N(C)C#N)n1	inactive: 109%
CCCSc1nc2sc3c(c2c(=O)n1-c1ccc(C)cc1)CCCC3	active: 5%
CC(c1ccccc1)n1cc(C(=O)NCCN2CCCCCC2)nn1 (stereo unspecified)	inactive: 119%
CC1=C(c2ccc(C(C)C)cc2)S(=O)(=O)NC1=NCc1ccc(OC(C)C)cc1	inactive: 89%
COc1ccc(NC(=O)CCCS(=O)(=O)c2nc(-c3ccccc3OC)cc(C(F)(F)F)n2)c(OC)c1	inactive: 76%
CC1Cc2ccccc2N1C(=O)CSc1ncccc1C(=O)O (stereo unspecified)	inactive: 100%
COc1ccc(C(C)NC(=O)CN(c2cc(OC)ccc2OC)S(=O)(=O)c2ccccc2)cc1 (stereo unspecified)	inactive: 76%
CC1CCN(CCCNC(=O)CN2C(=O)CSc3ccc(S(=O)(=O)N4CCCCC4)cc32)CC1	inactive: 78%
Cc1ccc(CNC(=O)C2CCCN(c3nc4ccccc4n4cccc34)C2)cc1 (stereo unspecified)	inactive: 86%
COC(=O)c1ccc(NC(=O)Cn2cncn2)cc1	inactive: 107%
O=C(c1cccs1)N1CCCc2cc(NS(=O)(=O)c3ccc(Br)cc3)ccc21	inactive: 68%
CCc1cccc(C)c1NC(=O)C1CCN(S(=O)(=O)c2cc(Br)cc3c2N(C(C)=O)CC3)CC1	inactive: 86%
COCCn1c(CNC(=O)c2ccccc2C)nc2cccnc21	inactive: 69%
Cc1ccc(C)c(CN2CCC(CNC(=O)C(CC(C)C)N3Cc4ccccc4C3=O)CC2)c1 (stereo unspecified)	inactive: 133%
COc1ccc(NC(=O)Nc2cccc(-c3noc(C)n3)c2)cc1	inactive: 134%
Brc1cccc(-c2nn(-c3ccccc3)c3c2cnc2cc4c(cc23)OCO4)c1	inactive: 86%
COc1ccc(-n2c(CC3C(=O)Nc4ccc(C)cc43)nc3ccccc3c2=O)cc1 (stereo unspecified)	inactive: 81%
O=C(NCc1ccccc1Cl)c1ccc2c(c1)ncn2-c1cccc(F)c1	inactive: 64%
COc1cccc(-n2ccnc2SCC(=O)Nc2cccc3ccccc23)c1	inactive: 152%
c1ccc(-n2cnnn2)cc1	inactive: 114%

SMILES	survival
O=c1c2c3c(sc2nnn1CCCCOc1ccc(Cl)cc1)CCCC3	inactive: 120%
CCCSC1=NC2(CCN(C(=O)NC3CCCCC3)CC2)N=C1c1ccc(OC)cc1	inactive: 71%
N#CC1=C2SCCN2C(=O)C(C#N)C12CCCCC2 (stereo unspecified)	inactive: 112%
COc1cc(-c2noc(-c3cc4cccc(C)c4oc3=O)n2)cc(OC)c1OC	inactive: 101%
COc1ccc(-c2nsc(NC(=O)c3oc4ccc(Cl)cc4c3C)n2)cc1	inactive: 85%
CCOc1ccccc1-n1c(N)c(C(=O)OC)c2nc3ccccc3nc21	inactive: 81%
O=C(Nc1ccc(F)cc1)c1nc(SCc2ccccc2F)ncc1Cl	inactive: 118%
COc1ccc(-c2noc(C3CCCN(C(=O)Nc4ccccc4)C3)n2)cc1 (stereo unspecified)	inactive: 109%
Cc1nc(-c2cccc(F)c2)sc1CCNC(=O)Cc1ccc(F)cc1	inactive: 136%
N#C/C(=C/c1ccc(O)cc1)c1nc(-c2ccc(-c3ccccc3)cc2)cs1	active: 0%
Cc1ccc(OCCn2c(CNc3ccccc3C)nc3ccccc32)cc1	inactive: 57%
Cn1c(C(=O)NCc2ccccc2Cl)cc2sc(Cl)cc21	inactive: 54%
Cc1cc(NC(=O)c2cnn(-c3ccccc3)c2-n2cccc2)ccc1Br	inactive: 52%
COc1ccc(-c2csc3ncnc(Nc4ccc(OC)cc4OC)c23)cc1	inactive: 75%
COc1cccc(-c2nc3c(C#N)c[nH]n3c2NC2CCCCC2)c1	inactive: 87%
CCc1cccc(NC(=O)Cn2c(=O)n(CC3CCC(C(=O)NC)CC3)c(=O)c3sccc32)c1 (stereo unspecified)	inactive: 84%
COc1cccc(CNC(=O)CN(c2ccc(C)cc2)S(=O)(=O)N(C)C)c1OC	inactive: 79%
Cc1cccc(N(C)C(=O)C2CCC(CNS(=O)(=O)c3cccc4nsnc34)CC2)c1 (stereo unspecified)	inactive: 84%
COc1cccc(CNC(=O)Cn2c(=O)cc(C)c3c(C)nn(C)c32)c1OC	inactive: 69%
N#CC1=C(N)N(c2ccc(Cl)cc2)C2=C(C(=O)CCC2)C1c1cc(CN2CCOCC2)cs1 (stereo unspecified)	inactive: 77%
COc1cc(NS(=O)(=O)c2cc(Br)cc3c2N(C(C)=O)C(C)C3)cc(OC)c1 (stereo unspecified)	active: -3%
O=C(NC1CCCCC1)c1ccc2c(c1)N(Cc1ccc(F)cc1)C(=O)c1ccccc1S2(=O)=O	inactive: 141%
CCOC(=O)CSc1nnc(-c2ccc(OC)cc2)o1	inactive: 72%

SMILES	survival
COc1cc(C(=O)Nc2cc(C)c(O)c(-c3nc4cc(Cl)ccc4o3)c2)cc(OC)c1OC	inactive: 77%
CCN(CC)C(=O)c1sc2c(c1C)c(=O)n(-c1ccccc1)c(=O)n2CC(=O)N(CC)c1cccc(C)c1	inactive: 68%
Cc1cn2c(=O)cc(COC(=O)COc3ccc(C)c(C)c3)nc2s1	inactive: 63%
O=C(c1ccccc1)N1CCC(c2nc3ccccc3[nH]2)CC1	inactive: 129%
CCCOc1ccc(C(=O)N(Cc2ccc(Cl)cc2)Cc2ccco2)cc1	inactive: 77%
CN(C(=O)CSc1nncn2c1cc1occc12)c1ccccc1	inactive: 87%
COc1ccc(CCCN=C(N)N)cc1Cl	inactive: 119%
CCCCN(C)C(=O)CN1C(=O)c2cccnc2Oc2ccc(Cl)cc21	inactive: 68%
Cc1ccc(CNC(=O)c2ccc3c(c2)NC(=O)C(CS(=O)(=O)Cc2cccc(C)c2)N3)cc1 (stereo unspecified)	inactive: 131%
COc1cc(NC(=O)CCS(=O)(=O)c2ccc(Br)cc2)cc(OC)c1	inactive: 66%
COc1ccc(Cn2ccn(CC(=O)Nc3cc(C)ccc3C)c(=O)c2=O)cc1	inactive: 86%
CC(C)c1ccc(-c2noc(SCC(=O)N3CCN(c4ccccc4F)CC3)n2)cc1	inactive: 73%
Cn1c(CNC(=O)CSc2nc(-c3ccccc3F)nc3cc(=O)[nH]n23)nc2ccccc21	inactive: 71%
O=C(NCc1cccs1)c1ccc2c(c1)sc1nc(-c3ccccc3)cn12	inactive: 98%
Cc1ccc(NC(=O)Cn2c(=O)ccc3cc(S(=O)(=O)N4CCCC4)ccc32)cc1C	inactive: 88%
Cc1c(C(=O)N2CCC(C(=O)Nc3ccc(F)c(Cl)c3)CC2)sc2nc[nH]c(=O)c12	inactive: 89%
COc1cc(CN(C(=O)c2ccccc2)c2ccccn2)cc(OC)c1OC	inactive: 82%
Cc1cc2nn(-c3ccc(F)cc3)nc2cc1NC(=O)c1ccc(C(C)(C)C)cc1	inactive: 69%
CCCOc1ccc(C2C(=O)N(C3CCCCCC3)CC(=O)N2C(C)C)cc1OC (stereo unspecified)	inactive: 80%
O=C(CC(c1ccccc1)c1cc(Br)ccc1O)NCCN1CCOCC1 (stereo unspecified)	inactive: 96%
O=C(Nc1ccc2nn(-c3ccccc3)nc2c1)c1ccccc1	inactive: 125%
CCOC(=O)/C(C#N)=C1\C(=O)Nc2ccccc21	inactive: 105%
COc1ccc(-c2cn3cccnc3n2)cc1NC(=O)c1ccccc1C(F)(F)F	inactive: 69%

SMILES	survival
COc1ccc2c(c1)c(=O)c(C(=O)c1ccc(F)cc1)cn2CC(=O)Nc1ccc2c(c1)OCCO2	inactive: 75%
O=C(Cc1ccccc1)Nc1ccc2oc(-c3ccc(Br)cc3)nc2c1	inactive: 99%
COc1ccc(-c2oc3ncn4nc(-c5ccccc5OC)nc4c3c2-c2ccc(OC)cc2)cc1	inactive: 124%
CC(C)(C)CC(C)(C)N=C1NS(=O)(=O)c2ccccc21	inactive: 112%
COc1cccc(CNC(=O)Nc2cn(CC(C)C)c(=O)c3ccccc23)c1	inactive: 83%
Cc1nc(N2CCCC2)ncc1C(=O)Nc1ccc(OC(F)(F)F)cc1	inactive: 83%
COc1ccc(OCc2ccc(-c3nc(C#N)c(NCc4ccc(F)cc4)o3)o2)cc1	inactive: 80%
CCOc1ccc(-n2c(-c3ccc(Br)cc3)cc3c2CC(C)(C)CC3=O)cc1	active: 8%
CCOC(=O)c1cc(-c2ccc(F)cc2)n(CCC(=O)Nc2nc3cc(C)c(C)cc3s2)c1C	inactive: 77%
Cc1nnc2c3ccccc3nc(Nc3ccc(F)cc3Cl)n12	inactive: 88%
Cc1ccc2c(CC(=O)Nc3nnc(C(C)C)s3)coc2c1C	inactive: 114%
COc1cc(OC)cc(-n2c(=O)c3sccc3n(Cc3cc(=O)n4c(C)cccc4n3)c2=O)c1	inactive: 148%
OCCN1CCN(c2ncnc3c2cnn3-c2cccc(Cl)c2)CC1	inactive: 90%
Cc1cccc(N(C)S(=O)(=O)c2nnc(NC(=O)C(C)(C)C)s2)c1	inactive: 99%
Cc1ccc(Cl)cc1NC(=O)Cn1nnc2sc3c(c2c1=O)CCC(C(C)(C)C)C3 (stereo unspecified)	inactive: 85%
COc1ccc(CCNc2ncnc3c2cnn3-c2ccc(F)cc2)cc1	inactive: 55%
N#Cc1c(SCC(N)=O)nsc1SCC(N)=O	inactive: 110%
N#CCNC(=O)c1sc2ccccc2c1Cl	inactive: 107%
Brc1ccc(CN2CCc3nc(Nc4ccccc4)ncc3C2)s1	inactive: 117%
O=C(c1ccc2c(c1)N(Cc1ccccc1F)C(=O)c1ccccc1S2=O)N1CCC(Cc2ccccc2)CC1 (stereo unspecified)	inactive: 98%
COc1ccc(OC)c(CNC(=O)c2cc3c(=O)oc4ccc(C)cc4c3s2)c1	inactive: 88%
COc1ccc(N(Cc2cc3cc(OC)ccc3[nH]c2=O)C(=O)c2cccc(Cl)c2)cc1	inactive: 87%
